According to ChEMBL document CHEMBL4888484, “Replenishing the malaria drug discovery pipeline: Screening and hit evaluation of the MMV Hit Generation Library 1 (HGL1) against asexual blood stage Plasmodium falciparum ,using a nano luciferase reporter read-out” (2022):
Values joined by “and” are separate entries in the source; they are usually repeats but may differ in a detail not shown here. Equal values may be shown once. The whole screen tested about 150,000 compounds, of which about 540 (0.36%) showed an effect of 50% or more. This is one part of the list.

Tested on: Plasmodium falciparum
Test: Primary screen in NF54 nanoGlo assay, in single point, at 2uM, 72h; a lower Z score goes with more inhibition
Assay type: functional, Erythrocyte
Details: timepoint 72 hour

SMILES	% Inhibition	Z score	% Inhibition (2 µM)
CCCCOc1c(OC)cccc1[C@H]1CC(=O)Nc2c1c(C)nn2-c1nc2ccccc2s1	-2%	0.3	
O=C(CCc1cccnc1)N1CCC(c2ccncn2)CC1	-4%	0.41	
COc1ccc(C)nc1NC(=O)NC(c1nccn1C)c1nccn1C	-5%	0.92	
COc1cc(-c2cccc(C(=O)N[C@H]3CCNC3=O)c2)cc(OC)c1OC	0%	0.05	
O=C(CCN1CCOC[C@@H](O)C1)NCc1ccc(F)cc1	0%	-0.08	
Cn1ncc(C2CC2)c1C(=O)Nc1cc(C(F)(F)F)n[nH]1	0%	-0.01	
CC(C)CN1CCNC(=O)[C@@H]1CC(=O)NCCc1nc(-c2ccccc2)no1	3%	-0.37	
O=C(NCCNC(=O)c1nc(CCn2ccc3ccccc32)no1)c1ccco1	-15%	1.83	
COCCN(C[C@H]1CCCO1)C(=O)c1cccc(-c2ccc3c(c2)CCO3)c1	0%	-0.03	
C[C@@H](CN1CCOCC1)NC(=O)N(Cc1ccccc1F)C1CCC1	6%	-0.74	
CS(=O)(=O)N1CCc2cc(NC(=O)Nc3cccc(Cl)c3)ccc21	3%	-0.51	
CN(CCNC(=O)c1cc(C#N)cs1)C(=O)c1cc(C#N)cs1	-16%	2.12	
COCc1cccc(N2C(=O)CC(C3C=C(C)C4C(=O)N(c5cccc(COC)c5)C(=O)C4C3)C2=O)c1 (stereo not given)	-6%	0.74	
CC(C)(C)OC(=O)N1CCC(C#CC(=O)NCCCCO)CC1	7%	-0.6	
CCn1nccc1[C@@H]1CCCN1S(=O)(=O)c1cc(OC)ccc1OC	-7%	1.4	
CCc1[nH]nc(-c2cc(OC)c(OC)c(OC)c2)c1NC(=O)C1CCC1	-3%	0.65	
C[C@@H]1Oc2ccccc2CN(c2cccc(C#N)c2)C1=O	-1%	0.11	
Cc1noc(CCNC(=O)N2CCC[C@H](N(C)C(=O)OC(C)(C)C)C2)n1	2%	-0.24	
Cc1cc(NC(=O)c2cccc(S(=O)(=O)NC3CC3)c2)no1	37%	-5.04	
COc1ccc(Cn2c(N)c(C(=O)NCc3ccc(C)cc3)sc2=S)cc1	-10%	1.54	
CCn1nc2n(c1=O)-c1cc(C)ccc1OC2	3%	-0.34	

SMILES	% Inhibition	Z score	% Inhibition (2 µM)
CC1(CS(=O)(=O)NCCNC(=O)c2ccc(Cl)cc2)CC1	-15%	2	
COCC(NC(C)c1ncc(C)s1)C(C)C (stereo not given)	-11%	1.01	
CN(C)CCN(C)C(=O)CO[C@H](c1ccccc1)C(F)(F)F	-9%	1.77	
Cc1nn(C(F)F)c(C)c1S(=O)(=O)N1CCNCC1	-9%	1.8	
COc1cc(CN2CCC2)ccc1OC[C@@H](O)CN1CCCCCCC1	-10%	1.97	
CN(Cc1cnn(C)c1)c1c(C#N)cnc2c(F)cc(F)cc12	6%	-0.57	
CC1CN(C(=O)c2cccc3cn[nH]c23)CC(C)O1 (stereo not given)	-2%	0.33	
Cn1nc(-c2ccccc2)nc1C(=O)N1CCC[C@H]1c1nc2ccccc2s1	-9%	1.23	
COc1ccc(S(=O)(=O)N2CC(=O)N(C3CC3)[C@](C)(C(=O)NCc3ccccc3OC)C2)cc1	-15%	1.93	
COc1ccccc1[C@@H](O)CNC(=O)NCCc1csc(C)n1	-17%	2.15	
CC1(C)C(CNC(=O)[C@]2(C)CCCCO2)C1(C)C	-9%	1.21	
O=C(c1cc(=O)c(OCc2ccccc2Cl)c[nH]1)N1CCCC1			-3% and 2%
N#Cc1cccc(CN2C[C@@H](CO)[C@H](NC(=O)c3ccccc3)C2)c1	-14%	2.43	
COC(=O)[C@H]1CN(c2nccn3cnnc23)C[C@@H]1c1ccc(O)cc1	-12%	1.54	
OC1CCN([C@H]2CCN(Cc3cccc(Cl)c3)C[C@@H]2O)CC1	-8%	1.55	
CN1CC[C@H](Nc2ccc(OCc3ccccn3)c(F)c2)C1=O	-8%	1.21	
Cc1cccnc1NC(=O)c1cc(O)ncn1	-11%	1.82	
CC1COCCN1CC(=O)N1CCCC1c1cccs1 (stereo not given)	3%	-0.37	
Cc1ccc(-c2nc(CCN(C)C(=O)CC3CCCC3)no2)cc1	-7%	0.68	
Cc1ccc(-c2nc(Cn3nnc(-c4nc(-c5ccc6c(c5)OCO6)no4)c3C)c(C)o2)cc1	0%	0.06	
CC1CC(=O)CC(C2CC2)N1C(=O)[C@H]1CCCO1 (stereo not given in full)	-9%	1.68	

SMILES	% Inhibition	Z score	% Inhibition (2 µM)
Cc1nc([C@H]2CCCN2C(=O)c2cc(C(F)(F)F)n(C)n2)cs1	7%	-1.01	
Cc1ccc(C(=O)N2CCCCCNC(=O)[C@@H]3CCC[C@@H]32)cn1	-4%	0.54	
O=C(c1ccccc1)c1nccn1CC(=O)N1CCCCC1	-8%	1.15	
Cc1cn2c(n1)CN(Cc1cscc1Cl)CC2	-15%	1.55	
NC(=O)c1ncc(Br)cc1N1CCC[C@H](F)C1	-6%	0.95	
Fc1ccccc1-c1noc(Cc2nnc(-c3cccc(Cl)c3)o2)n1	4%	-0.53	
O=C(N[C@H]1C[C@H](c2cc(N3CC[C@H](O)C3)ncn2)C1)c1cscn1	-9%	1.06	
Cc1nc2c([nH]1)CC[C@H](C(=O)NCc1cccnc1N1CCCC1)C2	-10%	1.69	
CC(C(=O)N1CCCC1c1ccc[nH]1)N1CCCCCC1 (stereo not given)	8%	-1.15	
O=C(NCCC(=O)N1CCOCC1)c1ccc2c3c(cccc13)CC2	-3%	0.64	
O=C(O)[C@H]1CN(C(=O)c2scc3c2CCCC3)C[C@@H]1c1cccnc1	3%	-0.47	
Cc1oc(-c2cccc(C(F)(F)F)c2)nc1CC(=O)N1CCc2ccccc2[C@@H]1c1ccc(F)cc1	-6%	0.99	
CN(C[C@@H]1OCCc2ccccc21)C(=O)c1nc[nH]c1C(F)(F)F	2%	-0.33	
CC(C)(C)OC(=O)N1CCC2(CC1)CCN2C[C@H](O)C(F)(F)F	-11%	1.16	
O=C1CN(C(=O)Nc2ccc(CC(F)(F)F)cc2)C2(CCCCC2)C(=O)N1	-26%	3.1	
O=C(Cn1cnc(-c2ccccc2)c1)NC[C@@H]1CCCN2CCCC[C@H]12	-12%	1.76	
CS(=O)(=O)C1(C(=O)N2CCc3c(ccc(Cl)c3Cl)C2)CCCC1	-9%	1.05	
CCN(C)c1nc(-c2ccccc2)nc2c1CN(C(=O)Nc1ccc(F)c(Cl)c1)CC2	-1%	0.16	
O=C(COC[C@H]1CCCO1)N(c1nc2ccccc2o1)C1CC1	-4%	0.81	
CC(C)c1ccc(-c2ccc(N(C)C)nc2)nn1	-22%	2.91	
Cc1ccc(S(=O)(=O)/N=C(/CNCc2ccccc2)N2CCN(S(=O)(=O)c3ccc(C)cc3)[C@H]2C(C)C)cc1	-6%	0.91	

SMILES	% Inhibition	Z score	% Inhibition (2 µM)
O=C(CCc1ccccc1)n1cnc2ccccc21	-4%	0.52	
CCc1ccc([C@@H]2CCCCN2C(=O)c2c[nH]c(=O)cc2OC)o1	-4%	0.62	
CC[C@H](NC(=O)N(Cc1cocn1)Cc1cocn1)c1ccc(C)cc1C	0%	-0.06	
Cn1cnnc1CCN[C@@H](Cc1ccccc1)C1CCCCC1	0%	-0.06	
Cc1ccc(NC(=O)Cn2cc(C(=O)N3CCC(C)CC3)c(=O)c3ccc(C)nc32)cc1	-15%	1.91	
Cc1ccc(F)cc1C=Cc1ccnnc1	-5%	1.04	
Cn1c(=O)n(CC(=O)N(C2CCCC2)[C@H]2CCS(=O)(=O)C2)c2ccccc21	-10%	1.6	
O=C(Cc1ccsc1)N1CC[C@H](CCOc2ccccc2)C1	2%	-0.33	
COCCC[C@H]1CCCCN1Cc1cnc(C)nc1	-9%	1.32	
O=c1cc2cccc(Br)c2c[nH]1	-2%	0.29	
Cc1cc(C)n(C(=O)c2ccc(Cl)c(S(=O)(=O)N3CCCCCC3)c2)n1	-5%	0.81	
C[C@H](NC(=O)N1CCC2(CC1)C(=O)N(C)C(=O)N2C)c1nc(C2CC2)no1	-12%	1.68	
CCOC(C)c1nc(CN(C)C(C)c2ccncc2)cs1 (stereo not given)	-13%	1.7	
Cc1nc(C(=O)NCCc2ccc(F)cc2)c(C)n1C1CCN(C)CC1	-6%	1.12	
Cc1ccc(C2=C[C@@H](c3ccccc3Cl)n3nc(NC(=O)CCc4ccccc4)nc3N2)cc1	2%	-0.27	
CCc1onc(C)c1[C@@H]1CCCN1S(=O)(=O)c1ccc(OC)cc1	0%	0.08	
COc1c(C)cc(-c2ccc3nc(-c4ccc5c(c4)OCO5)oc3c2)cc1C	6%	-0.72	
CN1CCn2ccnc2C12CCN(S(=O)(=O)c1ccccc1)CC2	-7%	0.92	
CC[C@H](C)N(CC(=O)N(Cc1cccn1Cc1ccccc1Cl)C1CCCCC1)C(=O)Nc1cccc(F)c1	2%	-0.39	
O=C(Nc1nc2c(Cl)cccc2n1CC(F)(F)F)[C@H]1CCOC1	7%	-1.24	
